# The other results are listed elsewhere or left out.
# System: PF3D7_0420300 AP2 domain 1 (GST-tagged)
# Assay: gcPBM binding intensity (ln(normalized median fluorescence intensity)); higher = stronger DNA binding
# Summary of the method: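 After 1 h on an Agilent 4 × 180k array of primer-extended double-stranded 36-bp intergenic genomic probes and negative controls, bound GST-tagged P. falciparum DNA-binding domains were detected with Alexa488 anti-GST antibody and scanned at 488 nm. The domains had been expressed in E. coli, and binding took place in 1× PBS with 1% milk, 0.2 mg/ml BSA, 0.5% salmon testes DNA and 0.03% Triton X-100. Binding intensity is the highest Masliner-normalised natural-log median intensity across replicate spots of either probe orientation.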
row,Sequence,gcPBM binding intensity (ln)
1,TACATAAAAATATCACGTACATATAATCATATACTA [XGTACX_site3505],9.19
2,ATATTTCATCTAGCTACACACATATAACAAATTACT [CACACA_site7843],9.73
3,TTCTTTTTCCAATTTGCACACCACAAAATTATATAT [CACACA_site2909],9.69
4,ACCTTTGATATATACACACACATAAAAAAAATATAT [CACACA_site6952],9.93
5,TCAAATTATATGAGTGGTACACATGTAATATTTTTA [XGTACX_site6518],9.06
6,AAAAAACGACCTTACGCACACATTATTCTAGTCTAT [CACACA_site2349],9.58
7,AAAAAAATATATATTACACACATATATACATATATA [CACACA_site3125],9.55
8,ATATATATATATATATGTACTTATTAAGATTAAAAA [XGTACX_site61],9.07
9,ATATTTTGTATAATCACACACACTATTATTAAATAG [CACACA_site2612],9.64
10,TTACATTTTTTATGTTTTTTTATATTGCAAAAAAAT [CACACA_negctrl_site1050],8.88
11,TTAAATATAAAAAGTAGTACATTTATATTTACCATA [XGTACX_site2962],8.96
12,AAAAAGTAGTAAAACAGTACAGTATTTATGCCTATT [XGTACX_site6434],9.47
13,AAAAAAAAAAAAAGTACACACTTTTGCGTACATGTA [CACACA_site7449],9.26
14,AATATATTTTTCTACCGTACATAATAAAATATATAT [XGTACX_site1777],9.2
15,TATTTATTTATTTATTGTACATAAGTATATATTATA [XGTACX_site6566],9.18
16,GAACCACTAAAATGAGCATGCTCATATTTACATATA [TGCATGCA_site1033],9.23
17,ATATATATATATATATGTACTTATATATAATATAGA [XGTACX_site3488],9.04
18,GTACTCTTCTCCAGACTGCACTATACGACTCGTACA [GTGCAC_site9770],9.22
19,ATTACATACACGCGCACACACAAAAAAAAAAAAAAA [CACACA_site1334],9.57

row,Sequence,gcPBM binding intensity (ln)
1,TGGTATGTTTTACAAAGTACCCATCGATTCTTATGT [XGTACX_site2822],9.27
2,TATATTTTATAAAAAAGTACACATGAAAATGTATTT [XGTACX_site5889],9.11
3,ATATTTAAAGAATAAGTGCAAAATGTAATTAATTTT [GTGCAC_site9901],9.28
4,TATTTATTACTATGTAAACACACATGCAATATATGT [CACACA_site8288],9.31
5,TGTAGTCTGGAGAAACGTACACAGTATCTGGTAACA [XGTACX_site4938],9.1
6,AAAGGGGATATATGAACACACAAAAAAAAAATATAT [CACACA_site2896],9.72
7,TTTTTTCCTTTTAATTGTACACAGATATAATATATT [XGTACX_site2230],9.33
8,AAATTTTATTATAGCAGTACAATATAATATTATTAA [XGTACX_site1971],9.13
9,AAATATTTTTTTTCTACACACATACAAATATAGATT [CACACA_site7164],9.48
10,ATGCCCCATATAAACACACAAATAAAAAGAATATAC [CACACA_site7292],9.72
11,AAATAAGAGCGTAGCACACACGCATTTTATAAATGT [CACACA_site741],9.44
12,TTTTTTTTTTTTTTTGCATGTTGTTTAATGTATTGT [TGCATGCA_site772],9.11
13,TATCATTTTATTATTCTACACACTTATCTATAATTA [CACACA_site7894],9.6
14,TTTTACAAAATAAAAATATAGAATACGGTAAATTAT [GTGCAC_negctrl_site40],9.25
15,TAAAAATGTGGACACACACACATATTTATATTTAAT [CACACA_site6827],9.62
16,TGTTGATGATATTACACACCCAATGAGAAAAGGAAT [CACACA_site2072],9.51
17,AAAAATTTAAGTGGGGGTACATTTTTTTAACACCTT [XGTACX_site1093],9.56
18,AACAAACACGGACACACACACACACTAGAATGATTA [CACACA_site5364],10.2
19,TAATATATTAACATGGGTACATATTATTTCATGTGT [XGTACX_site5985],9.37

row,Sequence,gcPBM binding intensity (ln)
1,ATATTTAAATGTAATACATGCAAATTTGAACATTTT [TGCATGCA_site736],9.23
2,AAAAAAAAAAAAATCACACATATGTATTTATATATA [CACACA_site5790],9.18
3,ATATAATTAAAATGCTCACACACATAAAAAAAAATT [CACACA_site2148],9.7
4,TACATAATACATATAACACACACAATTATACATAAA [CACACA_site9060],10
5,CACATATATATGTGTGCATGTTGTATTATATATTTA [TGCATGCA_site632],9.72
6,ATAATTACAAAATAAACACACATATAGATTTATATG [CACACA_site6343],9.6
7,ATTTTATTTTTTAAAGGTACAGTTACAGCTTATATA [XGTACX_site7513],9.16
8,GTACATATATACATTACACACGGTTTGATTTAAAAA [CACACA_site3379],9.45
9,TCTTTTAAAAAAAAAGGAGGAACATAAAAAGTAGAA [XGTACX_negctrl_site272],9.35
10,TGTTTCCAAAAAAAAAAAAAAAAAAAAAAAAAAAAA [CACACA_negctrl_site358],8.58
11,AAAAAAACATGAAACACACACAAATATTTATTTATA [CACACA_site6967],9.83
12,TTTTGTTTATTATGATTCAAAATGATTTTATCTTTG [TGCATGCA_negctrl_site425],8.99
13,TATTATATATATAAATGTACTTATTTTAATTCCCCT [XGTACX_site8638],9.16
14,TTTAATTTTTTTAATTCACACATTATTCCATCCTTT [CACACA_site5480],9.36
15,AATAAATAAGCAACATGTACATACAAATATATACAT [XGTACX_site8529],9.64
16,ATTTTCCATTGTGCTACACACAACGGTTCGCAATAA [CACACA_site2974],9.64
17,ATCTAATAAAAATACACACACATATGATTTGTGAAT [CACACA_site1867],9.68
18,TAAAAAAAATAGTCAAGTACATAAGAAGGGAAGAAA [XGTACX_site8733],9.46

# From the supplement of paper PMC11417369
